From PubChem BioAssay AID1508623 (National Center for Advancing Translational Sciences (NCATS), 2021)
The campaign covered roughly 48,000 compounds. About 450 (0.94%) were called active. Inconclusive results (about 19%) are left out. Calls come from the whole dose curve; as a rule, active = well fitted inhibition curve with a large enough effect; inconclusive = small, poorly fitted or top-dose-only effect; inactive = no such curve, though single readings can be large or run the other way. Some of the results follow.

test: Primary qHTS for Identification of Small Molecule Inhibitors of Huntingtin Promoter Activity; conditions: HEK293 HTT promoter firefly luciferase reporter (activity 0% = vehicle and -100% = no light), 24 h; series mostly up to 57.5 µM; activity change, negative = inhibition: at the top concentration; note: nearly all actives have a fitted effect of over 50% in size
Summary of the method: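 Firefly luciferase signal from promoter-reporter HEK293 cells was scaled between vehicle (0%) and zero RLU (-100%). Compounds were tested at final concentrations of up to 57.5 uM over 24 h at 37 degrees C. PTC124 at 50 uM final served as control inhibitor.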

| SMILES | activity change, negative = inhibition |
| --- | --- |
| Cc1cc(O)c(C(c2ccc(F)cc2)N2CCN(c3ccccc3)CC2)c(=O)n1Cc1ccco1 (stereo not drawn) | inactive: -1.24% |
| CC(NC(=O)c1cccc(Nc2nc3ccccc3n3nnnc23)c1)c1ccccc1 (stereo not drawn) | inactive: 18.8% |
| CS(=O)(=O)c1ccc(-c2cnc(N)c(C(=O)Nc3ccccc3)n2)cc1 | inactive: -21.5% |
| O=C(CSc1nc2c(c(=O)[nH]1)CCC2)Nc1cccc(O)c1 | inactive: 0.546% |
| COc1ccc(OC)c(NC(=O)Nc2cccc(OCc3cc(=O)n4cc(C)ccc4n3)c2)c1 | inactive: 40.7% |
| CCn1c(=O)c2sccc2n2c(CCCC(=O)Nc3ccc(C)cc3)nnc12 | inactive: -12.2% |
| Cc1ccc(N2CCN(c3ncnc4onc(-c5ccc(F)cc5)c34)CC2)c(C)c1 | inactive: -5.12% |
| Cc1ccc(S(=O)(=O)NCCc2nnc3ccc(SCc4cccc(F)c4)nn23)cc1 | inactive: -14.2% |
| COc1ccc(-c2nc3ccccc3o2)cc1NC(=O)c1ccc(-c2ccc(C)c(Cl)c2)o1 | inactive: -3.13% |
| Cc1ccc(Nc2c(-c3ccco3)nc3ccc(C)cn23)cc1 | inactive: 6.56% |
| CCN(C(=O)c1cc2c(=O)oc3ccccc3c2s1)c1cccc(C(F)(F)F)c1 | inactive: -11.8% |
| O=C(CN1C=NS(=O)(=O)c2ccccc21)Nc1ccc(Br)cc1 | inactive: -13.8% |
| Cc1ccccc1CNC(=O)CCCn1ncn2c(cc3occc32)c1=O | inactive: -10.3% |
| Cc1cccc(-n2nnc(-c3nc(-c4cccs4)no3)c2N)c1C | inactive: 104% |
| COc1ccc(NC(=O)CSC2=Nc3ccccc3C3=NC(Cc4ccccc4)C(=O)N23)cc1 (stereo not drawn) | inactive: -24.2% |
| COCCNC(=O)c1ccc2c(c1)NC(=O)C(CS(=O)(=O)Cc1ccc(F)cc1Cl)N2 (stereo not drawn) | inactive: -2.5% |
| COc1ccc(NC(=O)c2c(NC(=O)c3cccc(C)c3)sc3c2CCC3)cc1 | inactive: -9.9% |
| Cc1ccccc1CN1C(=O)c2ccccc2Sc2ccc(C(=O)N3CCOCC3)cc21 | inactive: -16.4% |
| COc1ccccc1-c1c(C(F)(F)F)oc2c(CN3CCCCC3C)c(O)ccc2c1=O (stereo not drawn) | inactive: -5.9% |
| Cc1cccc(-c2nc(-c3ccc4c(c3)[nH]c(=O)n4C)no2)c1 | inactive: 11.7% |
| O=C(Nc1ccc2oc(-c3cccc4c(Br)cccc34)nc2c1)c1ccc(Br)cc1 | inactive: -17.1% |
| Cc1cc(F)ccc1NC(=O)CCS(=O)(=O)c1cccc2nsnc12 | inactive: -3.96% |
| Cc1cccc(NC(=O)CSc2nc3c(oc4ccccc43)c(=O)n2-c2ccccc2)c1C | inactive: -10.7% |
| CCN1CCCC(OC(=O)C(c2ccccc2)c2ccccc2)C1 (stereo not drawn) | inactive: -0.662% |
| COc1cc(-c2cc3n(C)c(C)c(CCC(=O)Nc4ccc(F)cc4)c(=O)n3n2)cc(OC)c1OC | inactive: 9.35% |

| SMILES | activity change, negative = inhibition |
| --- | --- |
| COc1ccc(Cn2c(=O)c3oc4ccccc4c3n(Cc3ccccc3)c2=O)cc1 | inactive: 1.2% |
| CCOC(=O)c1[nH]c(C)c(CCC(=O)NCc2cccc(Cl)c2)c1C | inactive: -12.9% |
| Nc1ccc(C(=O)O)cc1 | inactive: 11.5% |
| COC(=O)c1ccc([C@@H]2Nc3c(cccc3C(F)(F)F)[C@@H]3C=CC[C@@H]32)cc1 | inactive: -24.3% |
| Nc1nc2nc(-c3ccc(Cl)cc3)cc(C(F)(F)F)n2n1 | inactive: 6.25% |
| CC(=O)N1c2ccccc2C(=O)C1N1CCN(c2cccc(C)c2C)CC1 (stereo not drawn) | inactive: -15.7% |
| Cc1ccc(NC(=O)CSc2nc3c(c(=O)[nH]2)CN(Cc2ccccc2)CC3)cc1Cl | inactive: -26% |
| Nc1nonc1-c1nc2ccccc2n1Cc1ccc(Br)cc1 | inactive: -12.7% |
| CC(C)(Oc1ccc(Cl)cc1)C(=O)Nc1cccc(-c2cn3cccnc3n2)c1 | inactive: -24.9% |
| CC1(C)CC(=O)c2cc(C(=O)Nc3ccc(Cl)cc3)c(=O)[nH]c2C1 | inactive: 33.8% |
| O=C(CC(c1cccs1)N1Cc2ccccc2C1=O)Nc1ccccc1F (stereo not drawn) | inactive: -25% |
| COC(=O)c1cc2occc2n1Cc1ccc(F)cc1Cl | inactive: -14.4% |
| Cc1ccc(NC(=O)CN2C(=O)CSc3ccc(S(=O)(=O)N(C)C)cc32)cc1C | inactive: -23.2% |
| Cc1ccc(CSC2=Nc3ccccc3C3=NC(CCC(=O)NCCc4ccccc4)C(=O)N23)cc1 (stereo not drawn) | inactive: -21.9% |
| COc1ccc(-c2nc(S(=O)(=O)c3ccc(Cl)cc3)c(N3CCCCCC3)o2)cc1 | inactive: -3.37% |
| CCOc1cc(C2C(C(N)=O)=C(C)Nc3ncnn32)cc(Br)c1O (stereo not drawn) | inactive: -7.82% |
| CCc1noc(-c2ccc(N3CCCCC3)c([N+](=O)[O-])c2)n1 | inactive: 40.1% |
| Cc1cc(OCC(=O)NCC2(N3CCOCC3)CCCCC2)ccc1Cl | inactive: -26.3% |
| CCc1cccc(NC(=O)C(CC(C)C)NS(=O)(=O)c2ccc3c(c2)oc(=O)n3C)c1 (stereo not drawn) | inactive: -34.4% |
| CCC(=O)N1CCc2cc(CNC(=O)Nc3cc(Cl)ccc3C(=O)OC)ccc21 | inactive: -26.2% |
| COc1ccccc1CN1CCC(CNC(=O)c2cnn(-c3ccc(C)c(C)c3)c2C2CCN(C(=O)OC(C)(C)C)CC2)CC1 | inactive: -20.3% |
| Brc1ccc2nc(-c3ccccc3)c(Nc3ccc4c(c3)OCO4)n2c1 | inactive: 1.43% |
| CCc1ccc(CNC(=O)CN2C(=O)CCn3nc(-c4cn(C)c5ccccc45)cc32)cc1 | inactive: -2.41% |
| O=C(Nc1cccc(Cl)c1)C1CCCN1S(=O)(=O)c1cccc2cccnc12 (stereo not drawn) | inactive: -26.9% |
| Cn1nnnc1SCCNCc1ccc(OCc2ccc(Cl)cc2)cc1 | inactive: -6.65% |

| SMILES | activity change, negative = inhibition |
| --- | --- |
| CC(C)(C)c1nc(-c2cccc(NS(=O)(=O)c3c(F)cccc3F)c2F)c(-c2ccnc(N)n2)s1 | inactive: -17% |
| Cc1cc(Cl)ccc1OCc1cc(=O)n2c3c(sc2n1)CCCC3 | inactive: -10.9% |
| Cc1ccc(CN2C(=O)c3ccccc3Sc3ccc(C(=O)NCCCN4CCOCC4)cc32)cc1 | inactive: -22.7% |
| Cc1oc(-c2cccc(Cl)c2)nc1CN1CCC(C(=O)NCCc2ccc(Cl)cc2)CC1 | inactive: -13% |
| COc1cccc(OCC(=O)Nc2nnc3n2CCS3)c1 | inactive: -5.22% |
| COc1ccc(C(=O)Nc2ccc(N3CCOCC3)c(C(F)(F)F)c2)cc1OC | inactive: -38.7% |
| C[C@H]1O[C@@H](n2cc(F)c(=O)[nH]c2=O)[C@H](O)[C@@H]1O | inactive: 5.97% |
| COc1cccc2c1CCCC2CCCN1CCN(C2CCCCC2)CC1 (stereo not drawn) | inactive: -3.98% |
| Cc1cccc(NC(=O)CSc2nc(=O)n(Cc3cccnc3)c3c2CCC3)c1C | inactive: -22.5% |
| COc1ccccc1NC(=O)c1cc(S(=O)(=O)N2CCc3ccccc32)ccc1F | inactive: -28.4% |
| COc1ccc(NC(=O)c2cc3c(=O)n(Cc4cccnc4)ccc3nc2C)cc1Cl | inactive: 4.85% |
| Cc1cccc(N2CCN(c3c4c(nc5nncn35)CCC4)CC2)c1C | inactive: -5.99% |
| COc1cc(-c2nnc(SCC(=O)Oc3ccccc3Cl)o2)cc(OC)c1OC | inactive: 0.0194% |
| O=[N+]([O-])c1nccn1CO[C@@H](CO)[C@H](O)CO | inactive: -8.75% |
| CN(C)c1ccc(C(CNS(=O)(=O)c2ccc(F)cc2)N2CCc3ccccc32)cc1 (stereo not drawn) | inactive: -21.6% |
| CC(C)CCN(Cc1ccco1)C(=O)Cn1ncc2c([nH]c3ccccc32)c1=O | inactive: -27.4% |
| O=c1c(N2CCc3ccccc3C2)csc2ccc(Br)cc12 | inactive: 11% |
| Cc1cccc(C(=O)Nc2ccc(N3CCN(c4ccc(F)cc4)CC3)c(C(=O)O)c2)c1 | inactive: 1.21% |
| Cc1ccn2c(Nc3ccc4c(c3)OCCO4)c(-c3ccc(C)s3)nc2c1 | inactive: 30% |
| Cc1ccc2nc(SCC(=O)Nc3ccc(C#N)cc3)[nH]c2c1 | inactive: -13.7% |
| COc1ccc(OC)c(NC(=O)CCc2nc(-c3ccc(C)cc3)no2)c1 | inactive: -22.4% |
| Cc1c(C(=O)N2CCC(C)CC2)c(S(=O)(=O)N2CCN(c3cccc(Cl)c3)CC2)c(C)n1C | inactive: -23.4% |
| COc1ccc(S(=O)(=O)c2cn(Cc3ccccc3)c3cc(F)c(F)cc3c2=O)cc1 | inactive: -13.4% |
| CN1C(=O)c2[nH]nc(-c3ccc(F)cc3)c2C1c1ccccn1 (stereo not drawn) | inactive: -6.51% |
| COc1ccc(Nc2cc(C(=O)NCc3ccccc3)c3ccccc3n2)cc1OC | inactive: 0% |

| SMILES | activity change, negative = inhibition |
| --- | --- |
| O=c1c(S(=O)(=O)c2ccc(Cl)cc2)cn(Cc2ccc(F)cc2)c2ccc(F)cc12 | inactive: -22.6% |
| CCCCn1c(SCC(=O)Nc2ccc(F)cc2)nc2c(sc3ccccc32)c1=O | inactive: -12.6% |
| C[C@H](NC(CCc1ccccc1)C(=O)O)C(=O)N1CCC[C@H]1C(=O)O (stereo partly drawn) | inactive: -26.7% |
| CC(C)c1ccc(NC(=O)Cn2nnc(C(=O)NCc3cccs3)c2N)cc1 | inactive: -8.94% |
| O=C(CSc1nnc(-c2ccc(Br)cc2)n1-c1ccccc1)c1ccccc1 | inactive: -10.2% |
| CNC(=O)CSc1nnc(NC(=O)Nc2ccccc2)s1 | inactive: 23.2% |
| Cc1ccc2oc3c(c(=O)c2c1)C(c1ccc(OCC(N)=O)cc1)N(Cc1ccc2c(c1)OCO2)C3=O (stereo not drawn) | inactive: 3.62% |
| COc1ccc(NC(=O)C(=O)NCC2(c3ccccc3)CCCC2)c(OC)c1 | inactive: -3.14% |
| CCOc1ccc(/C=C/c2nc(C#N)c(N3CCN(c4ccccc4)CC3)o2)cc1 | inactive: -1.89% |
| COc1ccc(CNC(=O)CN2C(=O)COc3ccc(S(=O)(=O)N4CCOCC4)cc32)cc1 | inactive: -3.94% |
| CCOCN(C(=O)Cn1cnc2cc(C)c(C)cc21)c1c(C)cccc1CC | inactive: -12.1% |
| CC1CCCCN1C(=O)CSc1nnc(-c2ccccc2Cl)o1 (stereo not drawn) | inactive: 10.2% |
| COc1ccccc1CNC(=O)Cn1c(=O)ccc2cc(S(=O)(=O)N3CCCC3)ccc21 | inactive: 7.56% |
| COc1ccc(-c2cn3nc(N4CCC(C(=O)Nc5ccc(C)cc5)CC4)sc3n2)cc1 | inactive: 2.32% |
| COc1ccc(Br)cc1CNC(=O)C1COc2ccccc2C1 (stereo not drawn) | inactive: 23.8% |
| O=C(c1ccc(CS(=O)(=O)c2c(Cl)cccc2Cl)o1)N1CCN(c2ccccc2)CC1 | inactive: -36.2% |
| Cc1ccc(-n2c(SCC(N)=O)nc3c([nH]c4ccccc43)c2=O)cc1 | inactive: -13.6% |
| Cc1cncn1CCc1nc2c3ccccc3nc(SCC(=O)Nc3ccccc3F)n2n1 | inactive: -4.11% |
| Cc1ccc(Cl)cc1N1CCN(c2ncnc3onc(-c4ccc(F)cc4)c23)CC1 | inactive: -0.0359% |
| CCOC(=O)N1CCN(C(=O)CN(c2cc(C)ccc2OC)S(=O)(=O)c2ccc(C)cc2)CC1 | inactive: -16.1% |
| CC(C)(C)c1ccc(-c2noc(CCC(=O)Nc3cccc(Cl)c3)n2)cc1 | inactive: -85.5% |
| CCc1ccc(-n2nc(C)c3c(C(=O)Nc4cc(C)ccc4C)cc(C)nc32)cc1 | inactive: -11.1% |
| CCOc1ccccc1CNC(=O)C1CCCN(S(=O)(=O)c2ccc3c(ccn3C)c2)C1 (stereo not drawn) | inactive: -0.615% |
